# Laboratory results reported in the supplement of paper PMC8728848.
# This is one part of the list.
# B1: Banana lectin (Musa acuminata) (protein)
# chain: MNGAIKVGAHGGNGGSAFDMGPAYRIISVKIFSGDVVDGVDVTFTYYGKTETRHYGGSGGTPHEIVLQEGEYLVGMAGEVANYHGAVVLGKLGFSTNKKAYGPFGNTGGTPFSLPIAAGKISGFFGRGGKFLDAIGVYLEPLEHHHHHH
# Columns and labels:
# Test in all cases: glycan array binding signal (z-score within array); higher = stronger binding
# Settings in all cases: glycan notation: IUPAC condensed, linker removed; mutation: W10H
# [1] = target: Gal(b1-4)GalNAc(b1-3)[Fuc(a1-2)]Gal(b1-4)GlcNAc
# In short: (§1)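 From the Consortium for Functional Glycomics database, 3228 arrays were curated, keeping only those whose protein sequence was available. Binding is given as a within-array Z-score averaged across arrays sharing a protein sequence and across linkers. Negative Z-scores can be read as non-binding.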
# [2] = target: Gal(b1-4)Glc
# In short: as §1
# [3] = target: Gal(b1-4)Glc6S
# In short: as §1
# [4] = target: Gal(b1-4)GlcNAc
# In short: as §1
# [5] = target: Gal(b1-4)GlcNAc(a1-6)Gal(b1-4)GlcNAc
# In short: as §1
# [6] = target: Gal(b1-4)GlcNAc(b1-2)Man
# In short: as §1
# [7] = target: Gal(b1-4)GlcNAc(b1-2)Man(a1-3)Man(b1-4)GlcNAc(b1-4)GlcNAc
# In short: as §1
# [8] = target: Gal(b1-4)GlcNAc(b1-2)Man(a1-3)[Gal(b1-4)GlcNAc(b1-2)Man(a1-6)]Man(b1-4)GlcNAc(b1-4)GlcNAc
# In short: as §1
# [9] = target: Gal(b1-4)GlcNAc(b1-2)Man(a1-3)[Gal(b1-4)GlcNAc(b1-2)Man(a1-6)]Man(b1-4)GlcNAc(b1-4)[Fuc(a1-6)]GlcNAc
# In short: as §1
# [10] = target: Gal(b1-4)GlcNAc(b1-2)Man(a1-3)[Gal(b1-4)GlcNAc(b1-2)Man(a1-6)][Gal(b1-4)GlcNAc(b1-4)]Man(b1-4)GlcNAc(b1-4)[Fuc(a1-6)]GlcNAc
# In short: as §1
# [11] = target: Gal(b1-4)GlcNAc(b1-2)Man(a1-3)[Gal(b1-4)GlcNAc(b1-2)Man(a1-6)][GlcNAc(b1-4)]Man(b1-4)GlcNAc(b1-4)[Fuc(a1-6)]GlcNAc
# In short: as §1
# [12] = target: Gal(b1-4)GlcNAc(b1-2)Man(a1-3)[GlcNAc(b1-2)Man(a1-6)]Man(b1-4)GlcNAc(b1-4)GlcNAc
# In short: as §1
# [13] = target: Gal(b1-4)GlcNAc(b1-2)Man(a1-3)[GlcNAc(b1-4)][Gal(b1-4)GlcNAc(b1-2)Man(a1-6)]Man(b1-4)GlcNAc(b1-4)GlcNAc
# In short: as §1
# [14] = target: Gal(b1-4)GlcNAc(b1-2)Man(a1-3)[Man(a1-6)]Man(b1-4)GlcNAc(b1-4)GlcNAc
# In short: as §1
# [15] = target: Gal(b1-4)GlcNAc(b1-2)Man(a1-6)Man(b1-4)GlcNAc(b1-4)GlcNAc
# In short: as §1
# [16] = target: Gal(b1-4)GlcNAc(b1-2)Man(a1-6)[GlcNAc(b1-2)Man(a1-3)]Man(b1-4)GlcNAc(b1-4)GlcNAc
# In short: as §1
# [17] = target: Gal(b1-4)GlcNAc(b1-2)Man(a1-6)[Man(a1-3)]Man(b1-4)GlcNAc(b1-4)GlcNAc
# In short: as §1
# [18] = target: Gal(b1-4)GlcNAc(b1-2)[Gal(b1-4)GlcNAc(b1-4)]Man(a1-3)[Gal(b1-4)GlcNAc(b1-2)Man(a1-6)]Man(b1-4)GlcNAc(b1-4)GlcNAc
# In short: as §1
# [19] = target: Gal(b1-4)GlcNAc(b1-2)[Gal(b1-4)GlcNAc(b1-4)]Man(a1-3)[Gal(b1-4)GlcNAc(b1-2)[Gal(b1-4)GlcNAc(b1-6)]Man(a1-6)]Man(b1-4)GlcNAc(b1-4)GlcNAc
# In short: as §1
# [20] = target: Gal(b1-4)GlcNAc(b1-2)[Gal(b1-4)GlcNAc(b1-4)]Man(a1-3)[GlcNAc(b1-4)][Gal(b1-4)GlcNAc(b1-2)Man(a1-6)]Man(b1-4)GlcNAc(b1-4)GlcNAc
# In short: as §1
# [21] = target: Gal(b1-4)GlcNAc(b1-2)[Gal(b1-4)GlcNAc(b1-4)]Man(a1-3)[GlcNAc(b1-4)][Gal(b1-4)GlcNAc(b1-2)[Gal(b1-4)GlcNAc(b1-6)]Man(a1-6)]Man(b1-4)GlcNAc(b1-4)GlcNAc
# In short: as §1
# [22] = target: Gal(b1-4)GlcNAc(b1-2)[Gal(b1-4)GlcNAc(b1-6)]Man(a1-6)[Gal(b1-4)GlcNAc(b1-2)Man(a1-3)]Man(b1-4)GlcNAc(b1-4)GlcNAc
# In short: as §1
binder,measurement,setting,value
B1,glycan array binding signal (z-score),[1],-0.159
same,glycan array binding signal (z-score),[2],-0.167
same,glycan array binding signal (z-score),[3],-0.147
same,glycan array binding signal (z-score),[4],-0.164
same,glycan array binding signal (z-score),[5],-0.202
same,glycan array binding signal (z-score),[6],-0.179
same,glycan array binding signal (z-score),[7],-0.126
same,glycan array binding signal (z-score),[8],-0.187
same,glycan array binding signal (z-score),[9],-0.164
same,glycan array binding signal (z-score),[10],-0.152
same,glycan array binding signal (z-score),[11],-0.156
same,glycan array binding signal (z-score),[12],-0.102
same,glycan array binding signal (z-score),[13],-0.172
same,glycan array binding signal (z-score),[14],-0.137
same,glycan array binding signal (z-score),[15],-0.181
same,glycan array binding signal (z-score),[16],-0.112
same,glycan array binding signal (z-score),[17],1.81
same,glycan array binding signal (z-score),[18],-0.166
same,glycan array binding signal (z-score),[19],-0.044
same,glycan array binding signal (z-score),[20],-0.159
same,glycan array binding signal (z-score),[21],-0.175
same,glycan array binding signal (z-score),[22],-0.111
